Test results published in the supplement of paper PMC3334620.
In all, about 33,000 sequences were measured (“E-score (-0.5 to 0.5)”: median about -0.035, highest 2% from about 0.35 on). This is one part of the list.

What follows are sequences tested against T1, Pdr3 (UniProt P33200) (assay: PBM E-score (8-mer binding enrichment) (E-score (-0.5 to 0.5)); higher = stronger / more preferred TF binding; most listed sequences are background and not binding sites). Conditions: protein concentration: 200 nM; construct: GST-full length.
T1 sequence: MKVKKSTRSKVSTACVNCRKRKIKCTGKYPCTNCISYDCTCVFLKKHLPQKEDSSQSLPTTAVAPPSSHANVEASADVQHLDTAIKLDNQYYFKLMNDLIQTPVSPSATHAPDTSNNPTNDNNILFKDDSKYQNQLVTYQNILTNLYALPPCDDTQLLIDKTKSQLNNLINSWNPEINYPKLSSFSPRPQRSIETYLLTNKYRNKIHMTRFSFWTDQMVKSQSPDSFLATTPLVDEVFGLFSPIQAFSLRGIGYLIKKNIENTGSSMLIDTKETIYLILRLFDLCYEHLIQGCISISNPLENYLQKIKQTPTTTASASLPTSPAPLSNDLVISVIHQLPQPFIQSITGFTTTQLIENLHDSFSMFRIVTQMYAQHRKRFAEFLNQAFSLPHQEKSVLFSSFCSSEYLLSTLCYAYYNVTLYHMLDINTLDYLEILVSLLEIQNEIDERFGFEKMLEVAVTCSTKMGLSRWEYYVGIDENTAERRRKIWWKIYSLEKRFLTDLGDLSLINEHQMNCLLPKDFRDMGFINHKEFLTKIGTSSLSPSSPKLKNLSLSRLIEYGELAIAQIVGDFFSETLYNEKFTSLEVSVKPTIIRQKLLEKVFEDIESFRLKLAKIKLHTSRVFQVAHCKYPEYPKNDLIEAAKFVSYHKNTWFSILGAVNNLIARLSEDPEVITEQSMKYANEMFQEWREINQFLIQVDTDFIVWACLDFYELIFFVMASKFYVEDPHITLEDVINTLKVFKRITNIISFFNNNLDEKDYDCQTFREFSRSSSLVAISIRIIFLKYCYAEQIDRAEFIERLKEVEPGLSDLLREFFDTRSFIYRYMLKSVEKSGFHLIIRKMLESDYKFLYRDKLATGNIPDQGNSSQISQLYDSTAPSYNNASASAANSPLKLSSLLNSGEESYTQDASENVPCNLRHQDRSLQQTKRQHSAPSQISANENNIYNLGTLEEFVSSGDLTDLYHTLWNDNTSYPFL
Procedure, shortened: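 GST-tagged yeast TFs (full-length or DNA-binding domain) were made by PURExpress in vitro transcription/translation and applied at about 100-200 nM to universal all-10-mer Agilent arrays. The arrays were made double-stranded by primer extension, on fresh or once-stripped slides. Bound protein was detected with fluorescent anti-GST, and scans were normalised with masliner. Each ungapped eight-base word, pooled with its reverse complement, received an E-score (modified Wilcoxon-Mann-Whitney statistic) from the Universal PBM Analysis Suite.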

Sequence	PBM E-score
GTCCATTA	-0.0206
CCCGGAGC	0.39
ATGTCTGC	-0.0315
AACGACCC	0.142
GCACTATA	-0.0101
CCGCCATA	0.288
CATCTCCG	0.377
CCCACTCC	0.0193
AAGCCACA	-0.204
ATTCTTCC	0.159
GCACACCA	0.0828
AAACTGGG	-0.0614
CTATGCCC	0.0437
ATTACGCA	-0.103
CGAGGTCC	0.299
AAACCTCT	-0.151
ATTCCATG	0.212
GACCATCC	0.109
GATATACA	0.0781
AGAGTCCG	0.166
ACCTTGTC	-0.247
AGAGTTCC	0.203
ACTCCGTG	0.282
CGCGATAA	-0.00886
CAGATGGA	0.108

Sequence	PBM E-score
ACTACACA	0.0141
AACAGGTC	-0.108
ATGAAAAC	0.175
TGACAGAA	-0.194
CCGATAAA	0.177
CACAGACA	-0.154
CTCCTAAG	-0.205
GGGTGATA	0.0215
AGGGGCCG	-0.113
ATGCATTG	-0.0958
CGGGATTC	0.382
AACGCTAA	-0.287
CTTTGGTC	0.116
AGTTCTCC	0.0212
CTAAATCC	0.245
GCTTGTAA	-0.201
ATCCATGG	0.0773
CCTTGGTA	0.0284
AGGTAGGC	-0.0914
AGCACTAA	-0.0921
CACGTCGA	0.0487
CATTGAGG	-0.178
GGATCAAA	0.0676
AAAGACGA	-0.246
GGATCGCC	0.155

Sequence	PBM E-score
GACAGGTA	-0.183
AGGGAGAG	-0.217
CACAGCAC	-0.0318
ACAAGTAC	-0.045
GGCTACAC	-0.271
AATTTTCG	-0.0602
AGGACAAG	-0.135
CGTATATA	-0.146
CTCACAAG	-0.0841
GAGATCAA	0.0191
AAGCTGAT	0.165
CCTATAGA	-0.208
CCCCGAAG	0.144
ATGTTTCA	-0.175
GAAGGGAC	-0.12
AAGACCAT	-0.164
CCGGGACC	0.413
ATGACCAT	-0.0204
CACGAAGG	-0.102
CTGCATGA	-0.226
AACGACGT	-0.159
CCAACGCG	0.0835
AACGCCAT	-0.0238
GCAAACGA	-0.0555
ACGCGAGA	-0.144

Sequence	PBM E-score
CTATCTTC	-0.0566
GAGCAAAC	-0.038
GAAGCGGA	0.318
AGGACTAT	-0.188
CCCGGCGA	0.296
CCCCTAAC	-0.143
CATCACAG	-0.0891
CCCCCTAC	-0.275
CCAATGAA	-0.124
CGTGTATC	-0.0288
ACCACTGA	-0.236
ATATAGTC	0.111
ATGAAATC	-0.0808
GGAGTACC	-0.0755
ACACCCGA	0.203
GCTGAACC	0.0584
AAGATTCC	0.283
AGTATATG	0.0798
CATTGACA	-0.155
CCCTCGTA	-0.0134
CGCCCGGC	0.293
AGGGCGTG	-0.0787
GGAACCGA	0.406
GAAATCGA	0.18
CCCTTCGA	-0.0988

Sequence	PBM E-score
GAGGTTGC	-0.0384
AGAACTCC	0.0347
GTGGGGTA	0.21
ACTCGTTG	-0.242
TGTTCGAA	-0.0866
AACATGAA	-0.113
CTCGTTTC	-0.109
CGAGGCAC	-0.0225
CCGTAATA	0.107
CGAGAGAA	-0.0217
GGAATTAC	0.224
CGCTCTCA	-0.094
AATAGGAT	0.0785
TACGTTGA	-0.214
AGAATCCT	-0.142
TAGTGTCA	0.0536
AGCTTCAA	-0.258
TCCCGGAA	0.463
AAGACAGC	-0.129
ATTTTAAC	-0.101
ATTCACCC	0.182
AACCCCCT	-0.347
CGTTATCA	-0.0262
CTTATGAA	-0.132
TACAGTAA	-0.301

Sequence	PBM E-score
GTTCGAAA	0.102
AAGTTTTA	-0.0119
ATAGGTTC	-0.0357
AAGCAATC	-0.0187
AAAGTAGC	-0.0793
ACTCTGTA	-0.165
ATTACATG	0.027
ATGACGGG	0.213
CATGGAAG	0.203
ATGACTAA	-0.214
CCTGGGGA	-0.292
CGGTGTGA	0.165
GAATGCGC	0.231
GTAGACAC	-0.0101
ACCGATGC	0.045
CAAGAGCG	-0.0589
CATTCAGG	-0.0624
AATGTGGA	0.00947
AGAGCGGC	0.168
ATATGATC	0.118
ATTGCCAA	-0.0932
GTGAAGCA	-0.0976
GCCAAAGA	-0.148
ACAGGCAA	-0.104
CATAGGGC	-0.118

Sequence	PBM E-score
GACGGGTA	0.0374
CCGGGGCA	0.235
CCATTCAC	0.014
AAAACCCT	-0.252
AGCCCCAT	-0.0914
CCATGGGA	0.0759
CATGAGAA	-0.0502
CCTGGGTA	-0.239
CTTCCGTC	0.403
ACCGTATG	-0.0796
ACCAAGAT	-0.0515
AGTGAAGG	-0.221
CCACCAAA	-0.116
CCATCTAG	-0.223
CGTTTACA	-0.141
GATACTGA	0.0486
GCTGCTAC	-0.212
CCCATTAC	-0.138
GGGCCGAC	0.0222
ACTCGGCG	0.248
CTTGCTAA	-0.266
CACACCGA	0.0166
